No constants are given. Whether binding was seen depends on the method and setting. For part of these data: In cells and extracts the contact can be indirect. Some results given as binding are weak or reduced against the parent protein; the word gives no strength. For part of these data: Where a sequence is shown, tags or fusion partners need not be part of it.
Key:
[1] = molecular target: T1, recombinant cytochrome P450c17, purified (human) (UniProt P05093); assay: d.c. and Fourier transformed a.c. cyclic voltammetry; cyt b5 adsorbed on a carbon nanotube electrode pre-modified with P450c17; deoxygenated 0.20 M NaCl + 0.02 M (K2HPO4+KH2PO4), pH 7.0; 23 ± 1°C; both purified
T1 sequence: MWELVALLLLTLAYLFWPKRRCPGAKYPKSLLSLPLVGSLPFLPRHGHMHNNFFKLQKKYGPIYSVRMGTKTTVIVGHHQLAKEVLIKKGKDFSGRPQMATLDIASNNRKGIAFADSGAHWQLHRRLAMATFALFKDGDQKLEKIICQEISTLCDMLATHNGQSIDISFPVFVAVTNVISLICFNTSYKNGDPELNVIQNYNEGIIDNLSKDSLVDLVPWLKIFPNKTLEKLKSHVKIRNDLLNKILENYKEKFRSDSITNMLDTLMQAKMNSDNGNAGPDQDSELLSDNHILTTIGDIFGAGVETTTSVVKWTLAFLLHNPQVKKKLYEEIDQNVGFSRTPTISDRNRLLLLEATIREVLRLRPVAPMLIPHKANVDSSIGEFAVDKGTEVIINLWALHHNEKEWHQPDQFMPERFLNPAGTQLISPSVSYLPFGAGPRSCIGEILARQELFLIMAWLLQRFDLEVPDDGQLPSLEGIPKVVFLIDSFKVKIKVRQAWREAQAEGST

By UniProt entry, the sequences of proteins in these tests, tags left out. Where a name states a change or a piece, a line headed by the entry shows the natural chain unless it says otherwise.
UniProt P00167: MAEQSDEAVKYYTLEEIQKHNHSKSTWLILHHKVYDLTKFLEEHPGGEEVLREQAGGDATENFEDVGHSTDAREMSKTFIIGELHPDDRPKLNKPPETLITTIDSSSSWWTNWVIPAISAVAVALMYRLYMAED

[2] = molecular target: T1, recombinant cytochrome P450c17, purified (human); assay: quartz crystal microbalance; mixtures of 20 nM P450c17 + 20 nM CPR + 20 or 100 nM cyt b5 deposited on a DMPC-cholesterol membrane on a Au-coated quartz crystal; 295 K; 0.10 M NaCl + 0.02 M (K2HPO4+KH2PO4), pH 6.9; both purified
[3] = molecular target: T2, human cytochrome P450c17 fused to a fluorescent protein at the C-terminus (human) (UniProt P05093); assay: FRET or BRET; living HEK293 or H295 cells co-transfected with CFP and YFP fusion constructs; FRET ratio from the enhanced acceptor emission, a ratio >1.0 indicates close association
T2 sequence: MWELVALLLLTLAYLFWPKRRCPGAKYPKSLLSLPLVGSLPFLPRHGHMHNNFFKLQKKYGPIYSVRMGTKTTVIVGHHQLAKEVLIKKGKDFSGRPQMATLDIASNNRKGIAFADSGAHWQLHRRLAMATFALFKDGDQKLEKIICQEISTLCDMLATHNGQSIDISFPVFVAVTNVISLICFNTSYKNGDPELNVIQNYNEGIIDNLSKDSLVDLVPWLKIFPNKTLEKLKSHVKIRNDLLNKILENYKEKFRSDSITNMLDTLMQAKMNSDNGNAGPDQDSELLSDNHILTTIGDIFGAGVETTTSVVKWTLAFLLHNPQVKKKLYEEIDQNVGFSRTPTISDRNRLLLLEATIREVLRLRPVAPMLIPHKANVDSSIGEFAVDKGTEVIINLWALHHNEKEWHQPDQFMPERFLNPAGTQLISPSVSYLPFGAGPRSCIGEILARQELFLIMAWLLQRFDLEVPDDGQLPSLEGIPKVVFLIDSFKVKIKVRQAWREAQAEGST

In the case of “E48G/E49G human cytochrome b5 double mutant, purified (from UniProt P00167 1-134)”, the binding [1] is reported as “no binding” and the binding [2] is reported as “no binding (tested: 20 nM and 100 nM E48G/E49G cyt b5)”.

In the case of “human cytochrome b5 fused to a fluorescent protein (from UniProt P00167 1-134)”, the binding [3] is reported as “binds”.

“wild type human cytochrome b5, purified (from UniProt P00167 1-134)” was tested, and the binding [1] was “binds” and the binding [2] was “binds”.

B1: cytochrome P450 aromatase fused to eCFP (enzyme, UniProt P11511 1-503)
chain: MVLEMLNPIHYNITSIVPEAMPAATMPVLLLTGLFLLVWNYEGTSSIPGPGYCMGIGPLISHGRFLWMGIGSACNYYNRVYGEFMRVWISGEETLIISKSSSMFHIMKHNHYSSRFGSKLGLQCIGMHEKGIIFNNNPELWKTTRPFFMKALSGPGLVRMVTVCAESLKTHLDRLEEVTNESGYVDVLTLLRRVMLDTSNTLFLRIPLDESAIVVKIQGYFDAWQALLIKPDIFFKISWLYKKYEKSVKDLKDAIEVLIAEKRRRISTEEKLEECMDFATELILAEKRGDLTRENVNQCILEMLIAAPDTMSVSLFFMLFLIAKHPNVEEAIIKEIQTVIGERDIKIDDIQKLKVMENFIYESMRYQPVVDLVMRKALEDDVIDGYPVKKGTNIILNIGRMHRLEFFPKPNEFTLENFAKNVPYRYFQPFGFGPRGCAGKYIAMVMMKAILVTLLRRFHVKTLQGQCVESIQKIHDLSLHPDETKNMLEMIFTPRNSDRCLEH
B1 was tested, and the binding [3] was “no binding”.

Source: publication PMC4654539
